The target of test [1] is Flag-tagged E2F4 (UniProt Q16254). Briefly: co-IP; 293T cells with HIF-1α knockdown, transfected with Flag-tagged genes and HA-Smad3, cultured under hypoxia for 24 h before protein extraction; western blotting.
Test [2] addresses Flag-tagged E2F5 (UniProt Q15329). The test is described as above.
The target in test [3] is T1, Flag-tagged p107 (UniProt P28749).
T1 sequence: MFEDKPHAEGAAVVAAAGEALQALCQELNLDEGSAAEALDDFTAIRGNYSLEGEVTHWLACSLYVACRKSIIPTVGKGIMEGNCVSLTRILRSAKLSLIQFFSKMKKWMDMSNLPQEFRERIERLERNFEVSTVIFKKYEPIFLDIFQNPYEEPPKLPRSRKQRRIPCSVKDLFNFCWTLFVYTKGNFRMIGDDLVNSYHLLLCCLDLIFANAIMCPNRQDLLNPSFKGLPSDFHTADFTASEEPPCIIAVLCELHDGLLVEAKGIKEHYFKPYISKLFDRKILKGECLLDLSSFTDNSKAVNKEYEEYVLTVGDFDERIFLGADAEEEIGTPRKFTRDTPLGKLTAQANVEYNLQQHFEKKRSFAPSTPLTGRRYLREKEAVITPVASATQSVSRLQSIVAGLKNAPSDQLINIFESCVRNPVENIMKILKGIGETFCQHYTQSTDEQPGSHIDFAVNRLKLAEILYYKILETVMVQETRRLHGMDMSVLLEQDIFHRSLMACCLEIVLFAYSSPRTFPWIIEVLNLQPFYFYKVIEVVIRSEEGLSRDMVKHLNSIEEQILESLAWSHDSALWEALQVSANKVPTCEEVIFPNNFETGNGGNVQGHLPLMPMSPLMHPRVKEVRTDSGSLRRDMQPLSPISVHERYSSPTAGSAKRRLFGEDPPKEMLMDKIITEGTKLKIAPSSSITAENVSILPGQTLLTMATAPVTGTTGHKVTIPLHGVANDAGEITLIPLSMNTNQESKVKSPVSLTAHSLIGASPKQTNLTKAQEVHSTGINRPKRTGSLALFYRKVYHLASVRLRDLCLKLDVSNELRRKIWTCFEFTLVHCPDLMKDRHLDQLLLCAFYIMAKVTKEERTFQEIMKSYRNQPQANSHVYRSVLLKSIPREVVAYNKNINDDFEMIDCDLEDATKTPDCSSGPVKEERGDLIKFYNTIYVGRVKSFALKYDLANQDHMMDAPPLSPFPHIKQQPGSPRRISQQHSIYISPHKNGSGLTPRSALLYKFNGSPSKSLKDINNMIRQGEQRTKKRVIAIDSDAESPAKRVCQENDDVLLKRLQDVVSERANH
Described as above.

The chains behind the UniProt entries cited, without tags or fusion partners.
UniProt Q16254: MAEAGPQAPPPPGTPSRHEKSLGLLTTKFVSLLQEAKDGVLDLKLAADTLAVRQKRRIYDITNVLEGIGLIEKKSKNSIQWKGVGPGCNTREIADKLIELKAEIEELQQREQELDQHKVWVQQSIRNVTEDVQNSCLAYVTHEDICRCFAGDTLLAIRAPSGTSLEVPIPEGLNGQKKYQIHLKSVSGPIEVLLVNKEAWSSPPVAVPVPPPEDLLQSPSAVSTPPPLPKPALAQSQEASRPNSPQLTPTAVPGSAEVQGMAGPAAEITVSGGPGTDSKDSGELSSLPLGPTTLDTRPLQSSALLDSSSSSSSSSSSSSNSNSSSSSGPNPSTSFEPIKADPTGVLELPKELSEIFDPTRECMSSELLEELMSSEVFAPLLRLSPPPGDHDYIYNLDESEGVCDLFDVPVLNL
UniProt Q15329: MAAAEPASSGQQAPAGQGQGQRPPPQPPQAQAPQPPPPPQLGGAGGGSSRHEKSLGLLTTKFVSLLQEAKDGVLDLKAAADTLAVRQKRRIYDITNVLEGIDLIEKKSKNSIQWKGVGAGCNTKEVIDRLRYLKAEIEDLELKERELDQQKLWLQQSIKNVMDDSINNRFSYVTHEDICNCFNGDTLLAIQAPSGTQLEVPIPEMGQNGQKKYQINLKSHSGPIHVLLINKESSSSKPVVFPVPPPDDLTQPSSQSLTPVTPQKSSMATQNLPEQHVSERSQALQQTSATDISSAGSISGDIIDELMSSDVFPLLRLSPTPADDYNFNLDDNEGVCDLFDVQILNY
UniProt P84022: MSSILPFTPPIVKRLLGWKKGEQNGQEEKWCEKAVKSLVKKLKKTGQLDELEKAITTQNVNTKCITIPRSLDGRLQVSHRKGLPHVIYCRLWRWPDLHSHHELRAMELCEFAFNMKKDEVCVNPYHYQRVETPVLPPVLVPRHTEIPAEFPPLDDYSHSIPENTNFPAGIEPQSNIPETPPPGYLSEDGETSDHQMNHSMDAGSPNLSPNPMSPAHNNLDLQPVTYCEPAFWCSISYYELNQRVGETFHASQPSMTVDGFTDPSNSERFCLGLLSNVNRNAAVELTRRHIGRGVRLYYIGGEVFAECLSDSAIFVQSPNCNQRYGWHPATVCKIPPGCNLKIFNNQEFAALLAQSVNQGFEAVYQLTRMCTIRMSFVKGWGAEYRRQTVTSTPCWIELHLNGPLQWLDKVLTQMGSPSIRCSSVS
UniProt Q16665: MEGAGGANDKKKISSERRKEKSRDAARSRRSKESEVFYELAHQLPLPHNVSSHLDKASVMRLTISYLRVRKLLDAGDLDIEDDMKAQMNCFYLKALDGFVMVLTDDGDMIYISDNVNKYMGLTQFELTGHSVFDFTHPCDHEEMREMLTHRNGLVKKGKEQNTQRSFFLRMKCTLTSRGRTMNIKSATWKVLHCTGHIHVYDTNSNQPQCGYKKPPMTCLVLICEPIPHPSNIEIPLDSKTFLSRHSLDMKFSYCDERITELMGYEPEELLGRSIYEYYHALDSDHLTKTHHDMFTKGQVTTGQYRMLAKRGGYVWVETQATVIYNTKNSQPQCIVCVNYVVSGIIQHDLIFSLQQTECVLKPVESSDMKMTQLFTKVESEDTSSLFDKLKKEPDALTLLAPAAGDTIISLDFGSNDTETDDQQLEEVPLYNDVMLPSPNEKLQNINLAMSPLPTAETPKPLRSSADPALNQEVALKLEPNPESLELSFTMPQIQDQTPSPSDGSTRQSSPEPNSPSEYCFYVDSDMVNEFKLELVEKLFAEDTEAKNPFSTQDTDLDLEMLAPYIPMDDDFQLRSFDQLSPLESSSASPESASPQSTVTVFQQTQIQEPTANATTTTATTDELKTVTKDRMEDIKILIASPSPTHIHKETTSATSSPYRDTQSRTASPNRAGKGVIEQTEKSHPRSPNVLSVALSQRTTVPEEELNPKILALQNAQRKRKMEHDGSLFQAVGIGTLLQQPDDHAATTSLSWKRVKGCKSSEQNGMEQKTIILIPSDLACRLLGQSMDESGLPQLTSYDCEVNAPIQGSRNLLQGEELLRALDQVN

For test [4], the target named is Flag-tagged E2F4 (UniProt Q16254). Briefly: condition: only under hypoxia, without HIF-1α knockdown; co-IP; 293T cells without HIF-1α knockdown, transfected with Flag-tagged genes and HA-Smad3, cultured under hypoxia for 24 h before protein extraction; western blotting.
Test [5] concerns the target Flag-tagged E2F5 (UniProt Q15329). Described as above.
Test [6] addresses T1, Flag-tagged p107. The description is as above.
Test [7] deals with HA-tagged Smad3 (UniProt P84022). Briefly: co-IP; 293T cells without HIF-1α knockdown, transfected with Flag-tagged genes and HA-Smad3, cultured under hypoxia for 24 h before protein extraction; western blotting.
Test [8] concerns the target hypoxia-inducible factor (HIF)-1α (human (endogenous in A549 and H1299)) (UniProt Q16665). Briefly: co-IP; endogenous proteins; A549 and H1299 cell lysates immunoprecipitated with the indicated antibodies, Protein A+G Agarose, 4 °C, washed 5 times with PBS, western blotting.

No constants are given. Whether binding was seen depends on the method and setting. In cells and extracts the contact can be indirect. Some binding calls cover weakened binding; strength is not graded here. For some assays here: Tags and fused reporters may be left off the sequences shown.

Binding data for three substances are collected here from paper PMC8690885.

For the substance “HA-tagged Smad3 (from UniProt P84022 1-425)”, the binding entry is “binds” in test [1]; “binds” in test [2]; “binds” in test [3]; “no binding” in test [4]; “no binding” in test [5]; “no binding” in test [6].

With “HIF-1α (endogenous in 293T cells under hypoxia) (from UniProt Q16665 1-826)”, the binding result in test [7] is “binds”.

“phosphorylated Smad3 (from UniProt P84022 1-425)”: in test [8], the binding entry is given as “binds”.
